Reference: patent US6613793B2 (Dabur Research Foundation, priority 2001, dated 2003)
At least one compound was matched to its structure with a doubt left. Some entries repeat one wording, which the source may state once for all of them.

Columns and labels:
[1] = tested on: Glyceraldehyde 3 phosphate dehydrogenase; experiment: Glyceraldehyde 3 phosphate dehydrogenase enzyme activity assay; format: biochemical
Protocol: The activity of Glyceraldehyde 3 phosphate dehydrogenase enzyme was assayed by the methods detailed earlier. (Krebs E, 1955, Methods in Enzymology, 1 407 and Velick S, 1955, Methods in Enzymology, 1, 401). To monitor the reaction, the increase in absorbance at 340 nm due to the formation of NADH from NAD was recorded at 15 seconds intervals, the values remaining almost linear for 3 minutes. The assay mixture was in a total volume of 1.5 ml containing 1.3 ml of Sodium pyrophosphate buffer (0.015M; pH 8.5), containing sodium arsenate (0.03M), 0.05 ml of NAD (7.5 mM), 0.05 ml of DTT (0.1M) and 0.05 ml of DL- glyceraldehyde 3 phosphate (7 mM). The enzyme was diluted 1:100 immediately prior to use in Sodium pyrophosphate buffer (0.015M) (pH 8.5) containing sodium arsenate (0.03M). The reaction was initiated by the addition of 0.05 ml of glyceraldehyde 3 phosphate dehydrogenase enzyme. The test mixture contained methyl glyoxal or its conjugates in concentrations ranging from 0.5 mM to 5 mM. Methyl glyoxal and its conjugates were dissolved in 2.5% ethanol and water. The control experiments were carried out in the absence of the enzyme or the substrate under identical conditions. One unit of activity of glyceraldehyde 3 phosphate dehydrogenase is defined as the amount of enzyme required to convert lumol of NAD to NADH per minute under conditions defined as above.

ECV304 cells = experiment: Inhibition of tube-like-structure (TLS) formation on Matrigel; format: cell-based; conditions: non-cytotoxic concentrations; comparable with Methylglyoxal
Protocol: Matrigel (70 ul) was placed into each well of a 96-well culture plate at 4° C. and was allowed to polymerize by incubation at 37° C. for 30 min. ECV304 (1×10^4) cells were seeded on the Matrigel in 200 ul DMEM supplemented with 10% FBS. The compounds to be tested were added to marked wells at selected non-cytotoxic concentrations and incubated at 37° C. for 24 hours. Five different phase-contrast microscopic fields (4X) were viewed and tube-like structure formation was evaluated qualatively by observing formation of lumen (sprouting) and extent of formation of branches and loops by sprouts (intususception). The inhibition of TLS caused by the addition of the test compound was recorded as significant (++), marginal (+), or no effect (−) as compared to the control TLS formation. A summary of the results is given below in the form of a table indicating the concentrations tested.

SMILES | Percent Inhibition Of Glyceraldehyde 3 Phosphate Dehydrogenase Activity ([1]; 0.5 mM) [%] | Percent Inhibition Of Glyceraldehyde 3 Phosphate Dehydrogenase Activity ([1]; 1 mM) [%] | Percent Inhibition Of Glyceraldehyde 3 Phosphate Dehydrogenase Activity ([1]; 5 mM) [%] | anti-TLS activity (in words) (ECV304 cells)
CCOC(=O)C1CCC(=O)N1C(O)C(C)=O (stereo not shown) [MGC-7, N-(1-Hydroxy-2-ketopropyl)-ethylpyroglutamate] | 9.1 ± 2.6 | 14.2 ± 2.3 | 12.8 ± 1.7 | –
COC(=O)C1CCC(=O)N1C(O)C(C)=O (stereo not shown) [MGC-1, N-(1-Hydroxy-2-ketopropyl)-methylpyroglutamate] | 30.9 ± 2.7 | 34.5 ± 3.1 | 36.2 ± 1.2 | marginal to significant anti-TLS activity
CCCCOC(=O)C1CCC(=O)N1C(O)C(C)=O (stereo not shown) [MGC-2, N-(1-Hydroxy-2-ketopropyl)-butylpyroglutamate] | 23.6 ± 2.8 | 29 ± 1.8 | 38.1 ± 1.1 | marginal to significant anti-TLS activity
COC(=O)C1CCC(=O)N1C(OC(C)=O)C(C)=O (stereo not shown) [MGC-4, N-(1-Acetoxy-2-ketopropyl)-methylpyroglutamate] | 21.6 ± 3 | 28.5 ± 2.5 | 31.6 ± 3.5 | –
CC(=O)C(O)N1C(=O)CCC1C(=O)OCc1ccccc1 (stereo not shown) [MGC-3, N-(1-Hydroxy-2-ketopropyl)-benzylpyroglutamate] | – | – | – | marginal to significant anti-TLS activity
CCCCOC(=O)C1CCC(=O)N1C(OC(C)=O)C(C)=O (stereo not shown) [MGC-5, N-(1-Acetoxy-2-ketopropyl)-butylpyroglutamate] | – | – | – | marginal to significant anti-TLS activity
